Measured values reported in PubChem BioAssay AID651820 (National Center for Advancing Translational Sciences (NCATS), 2012).
Hit rate of the full screen: of about 340,000 compounds, about 12,000 (3.5%) were called active. This list was built around the results that the source calls inconclusive (neither active nor inactive); the mix of calls is not that of the screen. Calls come from the whole dose curve; as a rule, active = well fitted inhibition curve with a large enough effect; inconclusive = small, poorly fitted or top-dose-only effect, or another doubt; inactive = no such curve, though single readings can be large or run the other way. Potencies of inconclusive entries are left out as doubtful fits.

Assay: qHTS Assay for Inhibitors of Hepatitis C Virus (HCV)
Details: Huh7.5.1 HCVcc-Cre (HCVcc is cell-culture hepatitis C virus) infection, luciferase reporter, 44 h; activity change, negative = inhibition: at 41.8 µM (top of the series) unless noted
How it was run: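 Cells seeded at 1,000/well and cultured 4 h, then compounds added followed by HCVcc-Cre virus (~0.5 moi). After 44 h further culture, luciferase substrate was added, plates held 15 min at room temperature, and luminescence read for 15 sec.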
% is set by controls: 0 for no effect and ±100 for the full control effect; potency is the fitted concentration of half-maximal effect; tags give direction and shape of the fitted curve.

Row | SMILES | Potency | activity change, negative = inhibition
1 | COc1cccc(Nc2cc(C)c3ccccc3n2)c1 | inconclusive [inhibitor, single point] | –
2 | O=C(Nc1ncc(S(=O)(=O)c2ccc([N+](=O)[O-])cc2)s1)c1cccc2ccccc12 | inconclusive [inhibitor, single point] | –
3 | NC(=S)N/N=C1\CCOc2ccc(Cl)cc21 | inconclusive [inhibitor, partial curve] | –
4 | CCn1c(SCC(=O)c2ccc(O)c(O)c2)nnc1-c1ccc(C)cc1 | inconclusive [inhibitor, single point] | –
5 | CC(C)(C)NC(=O)Nc1nnc(SCC(=O)NC2CCCCC2)s1 | – | inactive: 16.6%
6 | Cc1ccc(NC(=O)c2ccc(CNc3c(N4CCOCC4)c(=O)c3=O)cc2)cc1 | inconclusive [inhibitor, single point] | –
7 | Cc1ccc(NS(=O)(=O)c2cccc(C(=O)NC3CCN(Cc4ccccc4)CC3)c2)c(C)c1 | active: 14.1 µM | –
8 | CCN(CC(=O)NCc1ccc(Cl)cc1)C(=O)Cc1ccc(OC)cc1 | inconclusive [inhibitor, single point] | –
9 | Cc1nc2cc3c(cc2c(C)c1C(=O)OC(C)C)OCO3 | inconclusive [inhibitor, partial curve] | –
10 | O[C@@H](CNC[C@H](O)c1ccccc1)c1ccccc1 | – | inactive: -3.86%
11 | NNC(=S)Nc1c(Br)cc(F)cc1Br | – | inactive: 13.8%
12 | Cc1ccc(S[C@@H](CCN2CC[C@H](C)CCC2=O)c2ccccc2)cc1 | inconclusive [inhibitor, single point] | –
13 | Cc1nc2cc(Cl)ccc2c(=O)n1Cc1ccncc1 | – | inactive: 13.1%
14 | O=C1NC(=O)C(CC(=O)N(Cc2ccco2)C2(C(=O)NC3CCCCC3)CCCCC2)N1 (stereo not given) | inconclusive [inhibitor, partial curve] | –
15 | O=C(NCC1CCCO1)c1ccc(NC(=O)c2cccc([N+](=O)[O-])c2)cc1 (stereo not given) | inconclusive [inhibitor, single point] | –
16 | CCOc1ccc2nc(NC(=O)C3=NN(c4ccccc4)C(=O)CC3)sc2c1 | inconclusive [inhibitor, single point] | –
17 | CCn1nc(NC(=O)c2ccccc2)c2cc3cccc(C)c3nc21 | active: 25.1 µM | –
18 | Cc1ccc(C)c(S(=O)(=O)N2CCN(C(=O)c3cccn3C)CC2)c1 | – | inactive: 11.4%
19 | COc1ccccc1OCCNc1cc(N2CCCCC2)ccc1[N+](=O)[O-] | inconclusive [inhibitor, partial curve] | –
20 | CCOc1ccc(CC(=N)C2=C(O)CC(C)(C)CC2=O)cc1OCC | – | inactive: 29.5%
21 | COc1ccc(NC(=O)Nc2ccc3c(c2)CCC3)cc1 | – | inactive: 11.7%
22 | Cc1cc(C)c2oc(=O)cc(CN3CCCCC3)c2c1 | – | inactive: 12%
23 | CCN1CCCC1CNC(=O)c1cc2cc(F)ccc2[nH]1 (stereo not given) | – | inactive: -13.4%
24 | CCOC(=O)c1ccc(N/C(=N\S(=O)(=O)c2ccccc2C)c2ccccc2)cc1 | inconclusive [inhibitor, single point] | –
25 | C=CCn1c(NCCO)nc2sc3c(c2c1=O)CCC3 | inconclusive [inhibitor, single point] | –

Row | SMILES | Potency | activity change, negative = inhibition
26 | O=C(NCc1cccnc1)Nc1ccc(F)cc1F | – | inactive: 3.21%
27 | Cc1noc(C)c1COC(=O)c1csc2c1CCCC2 | inconclusive [inhibitor, single point] | –
28 | O=C(COC(=O)CCOc1ccccc1)Nc1cc(S(=O)(=O)N2CCCCC2)ccc1Cl | – | inactive: 22.5%
29 | COc1ccc(N(CC(=O)NCCSCc2ccccc2C)S(=O)(=O)c2ccccc2)cc1 | inconclusive [inhibitor, single point] | –
30 | COc1ccc(Br)cc1/C=N/NC(=O)c1ccc2nc[nH]c2c1 | inconclusive [inhibitor, partial curve] | –
31 | O=C(C1CCCO1)N1CCN(C(=S)Nc2ccc(Cl)c(Cl)c2)CC1 (stereo not given) | – | inactive: 2.92%
32 | O=C(COC(=O)c1ccc(S(=O)(=O)N2CCCC2)cc1)NCCc1ccc(F)cc1 | – | inactive: 7.43%
33 | CN(CC(=O)Nc1ccc(Cl)cc1)C(=O)CNC(=O)c1cccs1 | inconclusive [inhibitor, single point] | –
34 | COc1ccccc1Oc1ccc(S(=O)(=O)N2CCCC2)cc1 | inconclusive [inhibitor, single point] | –
35 | O=Cc1ccc(N2N=C(c3ccccc3)CC2c2ccccc2)cc1 (stereo not given) | inconclusive [inhibitor, single point] | –
36 | COc1ccc(CN2CCCC(C(=O)c3ccc(SC)cc3)C2)cc1Cn1cccn1 (stereo not given) | inconclusive [inhibitor, single point] | –
37 | CC(C)CNC(=O)CN1C(=O)NC2(CCCc3ccccc32)C1=O (stereo not given) | – | inactive: -7.41%
38 | CCc1nc(C)cc2c1sc1ccccc12 | – | inconclusive: -73.1% [inhibitor]
39 | Cc1ccc(C(=O)Nc2ccc(Oc3cccc(C(F)(F)F)c3)nc2)cc1 | inconclusive [inhibitor, partial curve] | –
40 | CCC(=O)Nc1cccc(C2=NN(c3ccccc3)C(c3ccc(OC)cc3)C2)c1 (stereo not given) | inconclusive [inhibitor, partial curve] | –
41 | COC(=O)C1=C(c2ccc3ccccc3c2)C[C@@H]2CC[C@H]1N2C(=O)NC1Cc2ccccc2C1 | inconclusive [inhibitor, single point] | –
42 | CC(NC(=O)CN1CCN(C(=O)c2cccs2)CC1)c1ccc(F)cc1F (stereo not given) | – | inactive: -7.14%
43 | O=C(Cc1csc(Nc2nc(=S)[nH]c3ccccc23)n1)N1CCN(c2cccc(Cl)c2)CC1 | active: 11.2 µM | –
44 | C=CCN1C(=O)S/C(=C\c2ccc(N3CCOCC3)cc2C)C1=O | inconclusive [inhibitor, partial curve] | –
45 | O=C(NCCc1c[nH]c2ccccc12)OCCCCOC(=O)NCCc1c[nH]c2ccccc12 | inconclusive [inhibitor, partial curve] | –
46 | N=c1c(C(=O)NC2CCCCC2)cc2c(=O)n3ccccc3nc2n1Cc1cccnc1 | inconclusive [inhibitor, partial curve] | –
47 | COC(=O)c1cn(NC(=O)c2cnccn2)c(=O)c2ccccc12 | inconclusive [inhibitor, single point] | –
48 | COc1ccc(NC(=O)c2cccc(S(=O)(=O)Nc3ccc(Br)cc3)c2)cn1 | inconclusive [inhibitor, single point] | –
49 | O=C(Nc1cccc(-c2nc3ncccc3o2)c1)c1cc2ccccc2o1 | inconclusive [inhibitor, single point] | –
50 | Cc1ccc(C2N(C)c3ccccc3-c3nc4ccccc4n32)o1 (stereo not given) | inconclusive [inhibitor, single point] | –

Row | SMILES | Potency | activity change, negative = inhibition
51 | Cc1cc(C)c(OCC(=O)Nc2nc(-c3ccccn3)cs2)c(C)c1 | active: 3.98 µM | –
52 | O=C(CSc1cccc2cccnc12)N/N=C/c1cccnc1 | inconclusive [inhibitor, single point] | –
53 | COC(=O)c1c(-c2ccccc2OC)sc2cc3c(cc12)OCO3 | inconclusive [inhibitor, single point] | –
54 | COc1cc(NC(=O)CCS(=O)(=O)c2ccc3c(c2)oc(=O)n3C)cc(OC)c1OC | – | inactive: 2.52%
55 | CC(C)c1ccc(/C=N/NC(=O)CN(c2cccc(Cl)c2Cl)S(C)(=O)=O)cc1 | inconclusive [inhibitor, single point] | –
56 | COC(=O)C1CN(C(=O)COc2ccccc2C)c2ccccc2O1 (stereo not given) | – | inactive: 3.88%
57 | CCCn1c(=N)n(CC(O)COc2ccc(C)cc2)c2ccccc21 (stereo not given) | – | inconclusive: -75.2% [inhibitor]
58 | O=C1CSC(c2ccccc2)N1CC(O)c1ccc([N+](=O)[O-])cc1 (stereo not given) | – | inactive: 4.45%
59 | CN(Cc1ccccc1)S(=O)(=O)c1ccc(Cl)c(C(=O)NCc2cccnc2)c1 | inconclusive [inhibitor, full curve] | –
60 | COCCOC(=O)c1c(C)oc2cc(Br)c(OCC(N)=O)cc12 | inconclusive [inhibitor, full curve, poor fit] | –
61 | O=S(=O)(Nc1ncnc2sccc12)c1cccc(F)c1 | – | inactive: 22.3%
62 | Cc1cccc(NC(=O)CC2C(=O)NCCN2C(=O)Nc2ccc(Cl)cc2)c1 (stereo not given) | – | inactive: 6.93%
63 | COc1ccc(Cl)cc1NC(=O)CN(C)C(=O)c1cccc(-n2cnnn2)c1 | – | inactive: 20.9%
64 | COCCCN1CC(=O)N2C(c3ccc(C)cc3)c3[nH]c4ccccc4c3C[C@H]2C1=O (stereo not given in full) | – | inactive: 8.89%
65 | CCCCC(O)(c1ccc(OC)cc1)C(CN1CCOCC1)c1ccccc1 (stereo not given) | – | inactive: -20.9%
66 | N#CC(c1ccc(Cl)cc1)N1CCOCC1 (stereo not given) | inconclusive [inhibitor, single point] | –
67 | CCOC(=O)Nc1c2ccccc2nc2ccccc12 | – | inactive: -25.7%
68 | Cc1cccc(NC(=O)NCC2CCN(c3ccc(S(=O)(=O)N4CCOCC4)cc3)CC2)c1 | inconclusive [inhibitor, single point] | –
69 | CC(=O)Nc1ccc(SCC(=O)NCCc2ccc(F)cc2)cc1 | inconclusive [inhibitor, single point] | –
70 | COc1ccc(CNC(=O)Nc2ccc(OC)cc2)cc1 | – | inactive: 0.914%
71 | O=C1CC(SC(=NCc2ccc3c(c2)OCO3)Nc2ccccc2)C(=O)N1 (stereo not given) | inconclusive [inhibitor, partial curve, poor fit] | –
72 | CCOC(=O)c1c(CN2CCCCC2)oc2ccc(OC)cc12 | inactive | –
73 | Cc1ccc(/C=N/NC(=O)c2n[nH]c3c2CCCC3)cc1 | – | inactive: 2.44%
74 | COC(=O)C1C/C(=N/NS(=O)(=O)c2ccc(C)cc2)CS1 (stereo not given) | – | inactive: 3.02%
75 | CCOc1ccc2nc(NC(=O)CSc3nc4cccnc4n3C)sc2c1 | inconclusive [inhibitor, partial curve, poor fit] | –
